{"source": "the supplement of paper PMC11348887", "note": "Counter-ions that a name gives are not always drawn. The list shows a part of the results. No stated cut-off is given here; in the data, active = -2 or less and inactive = the rest. Repeats are few or missing, and single values can be far off.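 Further: nuclei counted from DAPI counterstain by automated high-content image analysis, four fields per well at ×20 in 384-well plates, with sequential b-score then z-score normalization.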", "data": [{"tested_on": "hPSC-derived cortical neurons (WA09)", "experiment": "nuclei number (viability) z-score; higher = more surviving cells", "settings": "5 µM; treatment: days 7-14 after plating, readout day 21", "values": [{"smiles": "CN1CCC(OC(c2ccccc2)c2ccccc2)CC1", "note": "[Diphenylpyraline HCl]", "nuclei number (z-score)": "inactive: -0.107"}, {"smiles": "CCOC(=O)[C@H](CCc1ccccc1)N[C@@H](C)C(=O)N1Cc2cc(OC)c(OC)cc2C[C@H]1C(=O)O", "note": "[Moexipril HCl]", "nuclei number (z-score)": "inactive: 0.25"}, {"smiles": "Nc1nc(Nc2ccc3c(c2)CCC(N2CCCC2)CC3)nn1-c1cc2c(nn1)-c1ccccc1CCC2", "note": "(stereo not drawn)", "nuclei number (z-score)": "active: -6.55"}, {"smiles": "CCCC(=O)OCOC(=O)C1=C(C)NC(C)=C(C(=O)OC)C1c1cccc(Cl)c1Cl", "note": "(stereo not drawn) [Clevidipine Butyrate]", "nuclei number (z-score)": "inactive: 0.949"}, {"smiles": "CN(C)CCCN1c2ccccc2CCc2ccccc21", "note": "[Imipramine HCl]", "nuclei number (z-score)": "inactive: 0.0472"}, {"smiles": "C[C@H]1COc2c(N3CCN(C)CC3)c(F)cc3c(=O)c(C(=O)O)cn1c23", "note": "[Levofloxacin hydrate]", "nuclei number (z-score)": "inactive: 0.709"}, {"smiles": "C[C@H]1COc2c(N3CCN(C)CC3)c(F)cc3c(=O)c(C(=O)O)cn1c23", "note": "[Levofloxacin]", "nuclei number (z-score)": "inactive: -0.476"}, {"smiles": "NC(CO)C(=O)NNCc1ccc(O)c(O)c1O", "note": "(stereo not drawn) [Benserazide HCl]", "nuclei number (z-score)": "inactive: 0.79"}, {"smiles": "Fc1ccc([C@@H]2CCNC[C@H]2COc2ccc3c(c2)OCO3)cc1", "note": "[Paroxetine HCl]", "nuclei number (z-score)": "inactive: -0.0927"}, {"smiles": "Nc1nc(O)c2ncn(CCC(CO)CO)c2n1", "note": "[Penciclovir]", "nuclei number (z-score)": "inactive: 0.725"}, {"smiles": "O=c1[nH]cnc2c1ncn2[C@H]1CC[C@@H](CO)O1", "note": "[Didanosine]", "nuclei number (z-score)": "inactive: 0.493"}, {"smiles": "CN(C/C=C/C#CC(C)(C)C)Cc1cccc2ccccc12", "note": "[Terbinafine]", "nuclei number (z-score)": "inactive: 0.337"}, {"smiles": "CN(C/C=C/C#CC(C)(C)C)Cc1cccc2ccccc12", "note": "[Terbinafine HCl]", "nuclei number (z-score)": "inactive: -0.127"}, {"smiles": "CN1CCN(c2ccc(OC(F)(F)F)c(Nc3ncc4c(n3)-c3c(c(C(N)=O)nn3CCO)CC4)c2)CC1", "nuclei number (z-score)": "inactive: 0.422"}, {"smiles": "CC1COc2c(N3CCN(C)CC3)c(F)cc3c(=O)c(C(=O)O)cn1c23", "note": "(stereo not drawn) [Ofloxacin]", "nuclei number (z-score)": "inactive: -0.692"}, {"smiles": "O=C(/C=C/N1C[C@H]2C[C@@H]1CN2c1ccccn1)c1ccccc1O", "nuclei number (z-score)": "inactive: 1.47"}, {"smiles": "CCOC(=O)Nc1ccc(NCc2ccc(F)cc2)nc1N", "note": "[Flupirtine maleate]", "nuclei number (z-score)": "inactive: -0.105"}, {"smiles": "CCOc1cc(C(C)(C)C)ccc1C1=N[C@@](C)(c2ccc(Cl)cc2)[C@@](C)(c2ccc(Cl)cc2)N1C(=O)N1CCN(CCCS(C)(=O)=O)CC1", "nuclei number (z-score)": "active: -2.37"}, {"smiles": "O=C(O)CCCC[C@@H]1SC[C@@H]2NC(=O)N[C@@H]21", "note": "[Biotin (Vitamin B7)]", "nuclei number (z-score)": "inactive: 0.275"}, {"smiles": "CN1CCN(c2cc3c(cc2F)c(=O)c(C(=O)O)cn3-c2ccc(F)cc2)CC1", "note": "[Difloxacin HCl]", "nuclei number (z-score)": "inactive: 0.538"}, {"smiles": "Cn1c(Nc2ccc(C(F)(F)F)cc2)nc2cc(Oc3ccnc(-c4ncc(C(F)(F)F)[nH]4)c3)ccc21", "nuclei number (z-score)": "active: -2.14"}, {"smiles": "COC(=O)C1=C(C)NC(C)=C(C(=O)OC(C)C)C1c1cccc2nonc12", "note": "(stereo not drawn) [Isradipine]", "nuclei number (z-score)": "inactive: -0.634"}, {"smiles": "CC(=O)SCC(Cc1ccccc1)C(=O)NCC(=O)OCc1ccccc1", "note": "(stereo not drawn) [Racecadotril]", "nuclei number (z-score)": "inactive: 0.113"}, {"smiles": "N[C@@H](CSCCCO)C(=O)O", "note": "[Fudosteine]", "nuclei number (z-score)": "inactive: -0.26"}, {"smiles": "C[C@H](CCC(=O)O)[C@H]1CC[C@H]2[C@@H]3CC[C@@H]4C[C@H](O)CC[C@]4(C)[C@H]3CC[C@]12C", "note": "[Lithocholic acid]", "nuclei number (z-score)": "inactive: -0.476"}, {"smiles": "S=C(NCc1ccc2c(c1)OCO2)N1CCN(c2ncnc3c2oc2ccccc23)CC1", "note": "[Amuvatinib (MP-470)]", "nuclei number (z-score)": "inactive: -0.176"}, {"smiles": "OCCN1C[C@H](O)[C@@H](O)[C@H](O)[C@H]1CO", "note": "[Miglitol]", "nuclei number (z-score)": "inactive: -0.458"}, {"smiles": "CC1(C)CCC2=C(O1)c1ccccc1C(=O)C2=O", "note": "[Beta-Lapachone]", "nuclei number (z-score)": "active: -4.8"}, {"smiles": "CC(=O)OCC[N+](C)(C)C", "note": "[Acetylcholine Chloride]", "nuclei number (z-score)": "inactive: -0.458"}, {"smiles": "C#C[C@]1(O)CC[C@H]2[C@@H]3CCC4=CCCC[C@@H]4[C@H]3C(=C)C[C@@]21CC", "note": "[Desogestrel]", "nuclei number (z-score)": "inactive: -0.39"}, {"smiles": "CC(C)C(=O)Nc1ccc([N+](=O)[O-])c(C(F)(F)F)c1", "note": "[Flutamide]", "nuclei number (z-score)": "inactive: 0.695"}, {"smiles": "CC(=O)Oc1cc2c(s1)CCN(C(C(=O)C1CC1)c1ccccc1F)C2", "note": "(stereo not drawn) [Prasugrel Hydrochloride]", "nuclei number (z-score)": "inactive: 0.675"}, {"smiles": "CC(=O)Oc1cc2c(s1)CCN(C(C(=O)C1CC1)c1ccccc1F)C2", "note": "(stereo not drawn) [Prasugrel]", "nuclei number (z-score)": "inactive: 1.85"}, {"smiles": "Cn1cnc([N+](=O)[O-])c1Sc1ncnc2[nH]cnc12", "note": "[Azathioprine]", "nuclei number (z-score)": "inactive: 0.0169"}, {"smiles": "CCCS(=O)(=O)Nc1ccc(F)c(C(=O)c2c[nH]c3ncc(-c4ccc(Cl)cc4)cc23)c1F", "note": "[Vemurafenib (PLX4032_ RG7204)]", "nuclei number (z-score)": "inactive: 1.02"}, {"smiles": "O=C(Nc1c(Cl)cncc1Cl)c1ccc(OC(F)F)c(OCC2CC2)c1", "note": "[Roflumilast]", "nuclei number (z-score)": "inactive: 3.32"}, {"smiles": "CCOC(=O)OC(C)OC1=C(C(=O)Nc2ccccn2)N(C)S(=O)(=O)c2ccccc21", "note": "(stereo not drawn) [Ampiroxicam]", "nuclei number (z-score)": "inactive: 0.916"}, {"smiles": "Cc1cccc(-c2[nH]c(CNc3ccccc3F)nc2-c2ccc3ncnn3c2)n1", "nuclei number (z-score)": "inactive: 10.8"}, {"smiles": "O=C(O)c1cc(-c2ccc(F)cc2F)ccc1O", "note": "[Diflunisal]", "nuclei number (z-score)": "inactive: -0.124"}, {"smiles": "CCCCNC(=O)NS(=O)(=O)c1ccc(C)cc1", "note": "[Tolbutamide]", "nuclei number (z-score)": "inactive: 0.4"}, {"smiles": "C[C@@H]1O[C@@H](O[C@H]2[C@H](Oc3cc(O)c(C(=O)CCc4ccc(O)cc4)c(O)c3)O[C@H](CO)[C@@H](O)[C@@H]2O)[C@H](O)[C@H](O)[C@H]1O", "note": "[Naringin Dihydrochalcone]", "nuclei number (z-score)": "inactive: 1.48"}, {"smiles": "CCn1cc(C(=O)O)c(=O)c2cnc(N3CCCC3)nc21", "note": "[Piromidic Acid]", "nuclei number (z-score)": "inactive: 3.8"}, {"smiles": "O=S(=O)(O)CCS", "note": "[Mesna]", "nuclei number (z-score)": "inactive: -0.309"}, {"smiles": "CCOc1ccccc1OCCN[C@H](C)Cc1ccc(OC)c(S(N)(=O)=O)c1", "note": "[Tamsulosin hydrochloride]", "nuclei number (z-score)": "inactive: 2.35"}, {"smiles": "C[C@@H](CN1CC(=O)NC(=O)C1)N1CC(=O)NC(=O)C1", "note": "[Dexrazoxane HCl (ICRF-187_ ADR-529)]", "nuclei number (z-score)": "inactive: 0.326"}, {"smiles": "N=C(N)NCCC[C@H](N)C(=O)O", "note": "[L-Arginine HCl (L-Arg)]", "nuclei number (z-score)": "inactive: 0.0774"}, {"smiles": "Cc1nc2n(c(=O)c1CCN1CCC(c3noc4cc(F)ccc34)CC1)CCCC2", "note": "[Risperidone]", "nuclei number (z-score)": "inactive: -0.649"}, {"smiles": "CNCCC(Oc1ccc(C(F)(F)F)cc1)c1ccccc1", "note": "(stereo not drawn) [Fluoxetine HCl]", "nuclei number (z-score)": "inactive: -0.665"}, {"smiles": "Cn1nccc1Nc1nccc(-c2ccn([C@H](CO)c3ccc(Cl)c(F)c3)c(=O)c2)n1", "nuclei number (z-score)": "active: -5.47"}, {"smiles": "OCc1cc(C(O)CNCCCCCCOCCCCc2ccccc2)ccc1O", "note": "(stereo not drawn) [Salmeterol Xinafoate]", "nuclei number (z-score)": "inactive: -0.763"}, {"smiles": "CC(=O)OCC(=O)[C@@]12N=C(C)O[C@@H]1C[C@H]1[C@@H]3CCC4=CC(=O)C=C[C@]4(C)[C@H]3[C@@H](O)C[C@@]12C", "note": "[Deflazacort]", "nuclei number (z-score)": "inactive: -0.651"}, {"smiles": "CN(C)Cc1cccc(N/C(=C2\\C(=O)Nc3cc(C(N)=O)ccc32)c2ccccc2)c1", "nuclei number (z-score)": "inactive: -0.0347"}, {"smiles": "CCN1CC(CCN2CCOCC2)C(c2ccccc2)(c2ccccc2)C1=O", "note": "(stereo not drawn) [Doxapram HCl]", "nuclei number (z-score)": "inactive: -0.913"}, {"smiles": "CCC(=O)O[C@]1(C(=O)CCl)[C@@H](C)C[C@H]2[C@@H]3C[C@H](F)C4=CC(=O)C=C[C@]4(C)[C@@]3(F)[C@@H](O)C[C@@]21C", "note": "[Halobetasol Propionate]", "nuclei number (z-score)": "inactive: 0.679"}, {"smiles": "CC(=O)N[C@H]1[C@H]([C@H](O)[C@H](O)CO)OC(C(=O)O)=C[C@@H]1NC(=N)N", "note": "[Zanamivir]", "nuclei number (z-score)": "inactive: -0.949"}, {"smiles": "COc1cc(Nc2nc3ccccc3nc2NS(=O)(=O)c2ccc(NC(=O)c3ccc(C)c(OC)c3)cc2)cc(OC)c1", "nuclei number (z-score)": "inactive: 0.0939"}, {"smiles": "CCC1=C(C)CN(C(=O)NCCc2ccc(S(=O)(=O)NC(=O)N[C@H]3CC[C@H](C)CC3)cc2)C1=O", "note": "[Glimepiride]", "nuclei number (z-score)": "inactive: 0.766"}, {"smiles": "C[C@@]12C[C@@]3(O)O[C@@H](O1)[C@]1(COC(=O)c4ccccc4)[C@H]3C[C@@]12O[C@@H]1O[C@H](CO)[C@@H](O)[C@H](O)[C@H]1O", "note": "[Paeoniflorin]", "nuclei number (z-score)": "inactive: 1.29"}, {"smiles": "Cc1coc2c1C(=O)C(=O)c1c-2ccc2c(C)cccc12", "note": "[Tanshinone I]", "nuclei number (z-score)": "inactive: 7.96"}, {"smiles": "CCC(C)SSc1ncc[nH]1", "note": "(stereo not drawn)", "nuclei number (z-score)": "inactive: 0.331"}, {"smiles": "CCOC(=O)c1ccc(NC(=O)O[C@H]2[C@H](OC(=O)Nc3ccc4c(c3)OCO4)[C@@H](OC(=O)Nc3ccc4c(c3)OCO4)[C@@H](OC)O[C@@H]2CO)cc1", "nuclei number (z-score)": "inactive: 0.514"}, {"smiles": "CCNC(=O)C#Cc1ccc2c(C(=Nc3ccc(CN(C)C)cc3)c3ccccc3)c(O)[nH]c2c1", "nuclei number (z-score)": "active: -4.6"}, {"smiles": "CCCCOc1cc(C(=O)NCCN(CC)CC)c2ccccc2n1", "note": "[Dibucaine HCl]", "nuclei number (z-score)": "inactive: 0.317"}, {"smiles": "O=P(O)(O)C(Cl)(Cl)P(=O)(O)O", "note": "[Clodronate Disodium]", "nuclei number (z-score)": "inactive: 0.219"}, {"smiles": "O=C1CCc2cc(OCCCCc3nnnn3C3CCCCC3)ccc2N1", "note": "[Cilostazol]", "nuclei number (z-score)": "inactive: 0.591"}, {"smiles": "N#C[C@@H]1C[C@@H]2C[C@@H]2N1C(=O)[C@@H](N)C12CC3CC(CC(O)(C3)C1)C2", "note": "[Saxagliptin hydrate]", "nuclei number (z-score)": "inactive: 0.19"}, {"smiles": "N#C[C@@H]1C[C@@H]2C[C@@H]2N1C(=O)[C@@H](N)C12CC3CC(CC(O)(C3)C1)C2", "note": "[Saxagliptin]", "nuclei number (z-score)": "inactive: 1.09"}, {"smiles": "CCS(=O)(=O)CCn1c([N+](=O)[O-])cnc1C", "note": "[Tinidazole]", "nuclei number (z-score)": "inactive: 0.883"}]}]}
